Drawing on a collection of fitness landscapes (doi:10.1126/science.1257360), this text covers enrichment ratio for 153 variants.

This is one part of the list.

To fix the notation:
B1: PhoQ; a variant is named by its letters at X, in order, P23837 (parent)
chain: MKKLLRLFFPLSLRVRFLLATAAVVLVLSLAYGMVALIGYSVSFDKTTFRLLRGESNLFYTLAKWENNKLHVELPENIDKQSPTMTLIYDENGQLLWAQRDVPWLMKMIQPDWLKSNGFHEIEADVNDTSLLLSGDHSIQQQLQEVREDDDDAEMTHSVAVNVYPATSRMPKLTIVVVDTIPVELKSSYMVWSWFIYVLSANLLLVIPLLWVAAWWSLRPIEALAKEVRELEEHNRELLNPATTRELTSLVRNLNRLLKSERERYDKYRTTLTDLTHSLKTPLXXLQXXLRSLRSEKMSVSDAEPVMLEQISRISQQIGYYLHRASMRGGTLLSRELHPVAPLLDNLTSALNKVYQRKGVNISLDISPEISFVGEQNDFVEVMGNVLDNACKYCLEFVEISARQTDEHLYIVVEDDGPGIPLSKREVIFDRGQRVDTLRPGQGVGLAVAREITEQYEGKIVAGESMLGGARMEVIFGRQHSAPKDE

Variants of B1 are the subject of the experiment. As to the kind of experiment: enrichment ratio after two sorts for PhoP signalling (ratio (wild type AVST 3.29)); higher = more functional. The settings on record: with PhoP (E. coli).
Take EMIK: the enrichment ratio is at most 0.25.
For VVWC the value was at most 0.25; for DIRR, at most 0.25.
In the case of GVPG, the enrichment ratio is at most 0.25.
For TWER the value was at most 0.25; for YRMD, at most 0.25; for DFNN, at most 0.25.
For NMYP the value was at most 0.25; for TLHK, at most 0.25; for VITN, at most 0.25.
To DTCN belongs at most 0.25; to SKGP, at most 0.25.
With TIIA, the enrichment ratio is at most 0.25.
With MPLW, the enrichment ratio is at most 0.25.
For GHVR the value was at most 0.25; for MTRR, at most 0.25.
As to WSDL, the enrichment ratio is at most 0.25.
To PYWR belongs at most 0.25; to AVPP, at most 0.25.
On to MEDV, for which the enrichment ratio was at most 0.25.
To TVQE belongs 10.3; to MFFY, at most 0.25.
For KLVC, the enrichment ratio is at most 0.25.
Turning to YLKF, the enrichment ratio is at most 0.25.
For HYPE the value was at most 0.25; for DMAD, at most 0.25.
To SIEF belongs at most 0.25; to KDKI, at most 0.25.
To HPLT belongs at most 0.25; to SSMK, at most 0.25.
For the variant EFLL, the enrichment ratio was at most 0.25.
To YGPP belongs at most 0.25.
To FQIK belongs at most 0.25; to YNPR, at most 0.25; to SEAF, 8.7.
To MHAT belongs at most 0.25.
KSYE: the enrichment ratio is at most 0.25.
To DPNT belongs at most 0.25.
To SRKR belongs at most 0.25.
To PNWV belongs at most 0.25.
In the case of TEGF, the enrichment ratio came to 1.69.
To NVKN belongs at most 0.25.
To WKNK belongs at most 0.25; to TCIN, at most 0.25.
For MYKR the value was at most 0.25; for TSPI, at most 0.25.
In the case of EAER, the enrichment ratio was at most 0.25.
To VTLI belongs 8.55; to WLFQ, at most 0.25; to LSCQ, at most 0.25.
For MVAN the value was 15.8; for KYVE, at most 0.25.
To WLKV belongs at most 0.25.
For WKER, the enrichment ratio is at most 0.25.
For PESC the value was at most 0.25; for QPMP, at most 0.25.
TDTS: the enrichment ratio came to 3.18.
To SSIP belongs at most 0.25; to KAFQ, at most 0.25; to ADRF, at most 0.25.
For QYKI the value was at most 0.25.
For KMAH the value was at most 0.25; for DAGI, at most 0.25.
On to PMTV, for which the enrichment ratio is at most 0.25.
For TLGT the value was 8.82.
For WYMK the value was at most 0.25; for PFFM, at most 0.25.
To IAGT belongs at most 0.25.
For RPNV, the enrichment ratio was at most 0.25.
To NYEI belongs at most 0.25.
In the case of VKVY, the enrichment ratio is at most 0.25.
To IDAN belongs at most 0.25; to WLDW, at most 0.25.
For MMYY the value was at most 0.25; for PHEH, at most 0.25; for PIIM, at most 0.25.
For PMKM the value was at most 0.25; for GQHQ, at most 0.25; for KEYV, at most 0.25.
Take RYFS: the enrichment ratio is at most 0.25.
For NIYL the value was at most 0.25; for QVDH, 7.05; for LTWV, at most 0.25.
For NYKK the value was at most 0.25; for SLDG, at most 0.25; for RPPV, at most 0.25.
In the case of AARY, the enrichment ratio is at most 0.25.
For IPNT the value was at most 0.25; for AKLG, 5.74; for HHPI, at most 0.25.
Consider HGYS, for which the enrichment ratio was at most 0.25.
To HNRQ belongs at most 0.25; to FAGQ, at most 0.25; to GKKF, at most 0.25.
Turning to QLHF, the enrichment ratio is at most 0.25.
To IDHD belongs at most 0.25; to WVFH, at most 0.25; to EWFP, at most 0.25.
For IGGN the value was at most 0.25; for TEFP, at most 0.25; for SLNH, 0.412.
For YPMY the value was at most 0.25.
Take ASVA: the enrichment ratio amounted to 4.82.
To IPVC belongs at most 0.25; to ADNW, at most 0.25.
Take SIRE: the enrichment ratio was at most 0.25.
For SRER the value was at most 0.25.
To QEQY belongs at most 0.25.
For RSEW the value was at most 0.25; for NFIC, at most 0.25; for GYPD, at most 0.25.
Turning to IRRF, the enrichment ratio was at most 0.25.
To MRKD belongs at most 0.25.
To VRVN belongs at most 0.25.
To QGSD belongs at most 0.25.
As for FQEE, the enrichment ratio is at most 0.25.
For PGEG the value was at most 0.25; for NSND, at most 0.25.
To GGHW belongs at most 0.25; to YHIM, at most 0.25; to PSCT, at most 0.25.
To RRLH belongs at most 0.25; to TPIL, at most 0.25.
In the case of PCYA, the enrichment ratio is at most 0.25.
For RSII the value was at most 0.25; for DENR, at most 0.25; for NEKS, at most 0.25.
For IQSG the value was at most 0.25; for FYML, at most 0.25; for VDCV, at most 0.25.
For RTRD the value was at most 0.25; for RAKG, at most 0.25.
In the case of KGHS, the enrichment ratio is at most 0.25.
To NHWF belongs at most 0.25; to QHRF, at most 0.25.
With RKRG, the enrichment ratio was at most 0.25.
Consider KVGA, for which the enrichment ratio is at most 0.25.
For HNHT the value was at most 0.25; for EPFH, at most 0.25.
For DINA the value was at most 0.25; for YGLC, 7.13.
To FYFA belongs at most 0.25; to INWS, at most 0.25; to DVLW, at most 0.25.
As to GGAI, the enrichment ratio was 3.76.
For the variant IGQK, the enrichment ratio is at most 0.25.
To FVAR belongs at most 0.25; to TIPE, at most 0.25.
For MEDW the value was at most 0.25; for QMFL, at most 0.25; for THYA, at most 0.25.
To GKCK belongs at most 0.25; to FETI, at most 0.25.
